Assay results as given in publication PMC6919601, “Identification of Plasmodium dipeptidyl aminopeptidase allosteric inhibitors by high throughput screening” (PLoS ONE, 2019).
Values joined by “and” are separate entries in the source; they are usually repeats but may differ in a detail not shown here. Equal entries are not always repeated. Hit rate of the full screen: of about 110,000 compounds, about 230 (0.21%) showed an effect of 50% or more. The list shows a part of the results.

Biological target: DPAP1 (Plasmodium falciparum, UniProt Q8IIJ9)
Sequence (Q8IIJ9 whole entry, looked up): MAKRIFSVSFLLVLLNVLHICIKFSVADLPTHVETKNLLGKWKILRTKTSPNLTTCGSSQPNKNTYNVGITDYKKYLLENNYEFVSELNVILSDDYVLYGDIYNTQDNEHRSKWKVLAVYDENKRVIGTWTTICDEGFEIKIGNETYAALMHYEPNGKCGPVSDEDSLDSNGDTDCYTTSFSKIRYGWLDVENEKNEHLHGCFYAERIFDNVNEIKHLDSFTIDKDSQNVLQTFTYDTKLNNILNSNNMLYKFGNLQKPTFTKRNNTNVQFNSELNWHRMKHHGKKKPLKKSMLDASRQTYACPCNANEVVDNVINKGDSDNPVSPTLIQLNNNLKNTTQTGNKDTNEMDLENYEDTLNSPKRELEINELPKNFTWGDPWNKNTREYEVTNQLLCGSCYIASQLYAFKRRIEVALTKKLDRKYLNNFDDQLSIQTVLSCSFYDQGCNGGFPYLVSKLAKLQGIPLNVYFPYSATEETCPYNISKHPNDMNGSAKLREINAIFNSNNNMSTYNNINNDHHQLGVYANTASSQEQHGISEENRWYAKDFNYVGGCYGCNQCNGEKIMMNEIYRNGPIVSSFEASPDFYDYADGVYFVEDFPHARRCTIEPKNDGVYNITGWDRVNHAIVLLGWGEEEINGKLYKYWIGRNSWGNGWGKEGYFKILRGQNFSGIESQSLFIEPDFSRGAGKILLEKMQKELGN
Experiment: primary screen, percent inhibition; read by cleavage of a fluorogenic dipeptide substrate; higher = more effect of the substance
Parameters: species or system P. falciparum D10 trophozoite lysates; single well
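Also: 30 min substrate incubation versus DMSO and 10 µM JCP410 controls.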

Going from `COc1ccc(CCNC(=O)[C@H]2O[C@@H]3OC(C)(C)O[C@@H]3[C@H]3OC(C)(C)O[C@H]32)cc1OC` to `COc1ccc(C2OCC3(CO2)SC(=O)NC3=O)cc1OC` (centres unmarked), the “% Inhibition @ 10 uM” value falls from 1.64% to -4.43%.

Going from `CCC1CCCCN1C(=O)CSc1nnc(CNC(=O)c2cc(OC)c(OC)c(OC)c2)o1` (centres unmarked) to `CCC1CCCCN1C(=O)Cn1c(C(=O)OC)cc2sc(Cl)cc21` (centres unmarked), the “% Inhibition @ 10 uM” value falls from 3.48% to -7.13%.

First: CCSc1nc(O)c2c(n1)NC(=O)CC2c1cccc(O)c1 (centres unmarked)
Second: CCn1cc(C(=O)Nc2c(C)nn(Cc3ccc(Cl)cc3Cl)c2C)cn1
The “% Inhibition @ 10 uM” value of the first is higher: 3.84% for the first, 0.431% for the second.

First: Cc1ccccc1S(=O)(=O)Cc1ccc(C(=O)NCCCN2CCOCC2)o1
Second: COc1ccc(S(=O)(=O)Cc2ccc(C(=O)NCc3ccccn3)o2)cc1
The “% Inhibition @ 10 uM” value of the first is higher: 3.77% for the first, 2.14% for the second.

Compared with `COc1cc2ncc(S(=O)(=O)c3ccccc3)c(N3CCN(C)CC3)c2cc1OC`, `COc1ccccc1N(CC(=O)N1CCCC1)S(=O)(=O)c1ccccc1` is lower in “% Inhibition @ 10 uM” value: -10.2% for the first, -11.7% for the second.

Going from `CC1CCN(S(=O)(=O)c2nnc(NC(=O)c3ccccc3Br)s2)CC1` to `CC1CCN(S(=O)(=O)c2ccc(NC(=O)C3CCCO3)cc2)CC1` (centres unmarked), the “% Inhibition @ 10 uM” value falls from 1.68% to -6.43%.

First: CC(=O)C1=C(C)OC(N)=C(C#N)C1c1ccccc1[N+](=O)[O-] (centres unmarked)
Second: CCOc1cc(C2C(C#N)=C(N)Oc3c2c(-c2ccccc2)nn3C)cc(Br)c1O (centres unmarked)
The “% Inhibition @ 10 uM” value of the first is lower: -1.29% for the first, 1.57% for the second.

Going from `CCc1ccc(C2=NN(CCC(=O)NCc3cccs3)C(=O)CC2)cc1` to `CCc1ccc(-c2nc(CS(=O)CC(=O)NCCCN3CCC(C)CC3)c(C)o2)cc1` (centres unmarked), the “% Inhibition @ 10 uM” value rises from -0.971% to 0.718%.

First: COc1ccc(N2C(=O)C(Cl)=C(Nc3cccc(C(F)(F)F)c3)C2=O)cc1
Second: COc1ccc(C2=N/C(=C\c3cccc(Br)c3)C(=O)O2)cc1
The “% Inhibition @ 10 uM” value of the first is higher: 4% for the first, -0.597% for the second.

First: O=C(NCc1ccco1)C1Sc2nnc(-c3ccccc3)n2NC1c1ccc(Cl)cc1 (centres unmarked)
Second: CCc1ccc(Oc2nc3ccccn3c(=O)c2/C=C(\C#N)C(=O)NCc2ccco2)cc1
The “% Inhibition @ 10 uM” value of the first is higher: 1.72% for the first, 0.0628% for the second.

Compared with `CC(C)C12CN3CC(C(C)C)(CN(C1)C3c1ccc(O)cc1O)C2=O` (centres unmarked), `Cc1nc2ccc(S(=O)(=O)NC(C(=O)N3CC(C)CC(C)C3)C(C)C)cc2s1` (centres unmarked) is higher in “% Inhibition @ 10 uM” value: -1.19% for the first, 3.2% for the second.

First: O=[N+]([O-])c1c(Nc2ccc(Cl)cc2)nc(Nc2ccccc2)nc1Nc1cccc(Cl)c1
Second: c1ccc(-c2ccc(Oc3cc(-n4cccn4)nc(-c4ccccc4)n3)cc2)cc1
The “% Inhibition @ 10 uM” value of the first is lower: 2.6% for the first, 3.48% for the second.

Going from `COc1ccc(Br)cc1CNC(=O)CCC(=O)n1nc(C)c2ccccc21` to `COc1ccc(NC(=O)CSc2nc3ccccc3s2)cc1OC`, the “% Inhibition @ 10 uM” value falls from 8.34% to -1.37%.

First: COc1ccc(OC)c(NC(=O)c2ccc(C)cc2)c1
Second: COc1ccc(/C=c2\sc3nc(-c4cccc(C)c4)nn3c2=O)c(OC)c1
The “% Inhibition @ 10 uM” value of the first is higher: 10.7% for the first, 5.44% for the second.

First: Cc1cccc(C2OC3(C(=O)c4ccccc4C3=O)C3C(=O)N(C4CCCCC4)C(=O)C23)c1 (centres unmarked)
Second: CCN(CC)C(=O)C1CCN(S(=O)(=O)c2cccc3c2C(=O)c2ccccc2C3=O)CC1
The “% Inhibition @ 10 uM” value of the first is higher: 2.93% for the first, -0.403% for the second.

First: O=C(CN1C(=O)C2C3c4ccccc4C(c4ccccc43)C2C1=O)Nc1cccc(C(=O)O)c1 (centres unmarked)
Second: Cc1nnc(NC(=O)C(Cc2ccccc2)N2C(=O)C3C4C=CC(C4)C3C2=O)s1 (centres unmarked)
The “% Inhibition @ 10 uM” value of the first is higher: 0.727% for the first, -4.07% for the second.

Going from `O=C1C(=O)N(CN2CCOCC2)c2ccc([N+](=O)[O-])cc21` to `Cc1cc(C)cc(OCC(=O)Nc2ccc(S(=O)(=O)N3CCCC3)cc2)c1`, the “% Inhibition @ 10 uM” value rises from -5.51% to 1.64%.

Going from `COCc1cc(C)nc(SCC(=O)c2ccc(Cl)cc2)c1C#N` to `COc1ccc(NC(=O)CCC(=O)c2ccc(F)cc2)cc1`, the “% Inhibition @ 10 uM” value falls from 0.687% to -0.872%.

Going from `COc1ccc(Cc2nnc(NC(=O)Cn3cnc4c3c(=O)n(C)c(=O)n4C)s2)cc1OC` to `CCCCCOc1ccc(C2c3c(oc4ccccc4c3=O)C(=O)N2c2nnc(C)s2)cc1OC` (centres unmarked), the “% Inhibition @ 10 uM” value rises from 3.12% to 11%.

First: Cc1cc(NCc2ccc(F)cc2Cl)n2nnnc2n1
Second: Cc1nc2ccccc2n1Cc1ccc(Cl)c(Cl)c1
The “% Inhibition @ 10 uM” value of the first is higher: 3.51% for the first, -3.14% for the second.

First: CCC(=O)Nc1sc2c(c1C(=O)Nc1ccccc1)CCC(C)C2 (centres unmarked)
Second: Cc1ccc(NC(=O)C2=Cc3sc4c(c3CS2)CCC(C)C4)nc1 (centres unmarked)
The “% Inhibition @ 10 uM” value of the first is higher: 3% for the first, 0.942% for the second.

Going from `CCCCn1c(NCc2ccco2)nc2ccccc21` to `COc1ccc(CNc2nc(N)n(-c3ccccc3)n2)cc1`, the “% Inhibition @ 10 uM” value rises from -4.72% to 0.778%.

First: CCOC(=O)N1CCN(C(=O)C(C)N(c2ccccc2)S(C)(=O)=O)CC1 (centres unmarked)
Second: CC(C(=O)N1CCN(C)CC1)N(c1ccccc1)S(C)(=O)=O (centres unmarked)
The “% Inhibition @ 10 uM” value of the first is lower: -5.13% for the first, -4.31% for the second.

Going from `COc1ccc(/C=C2\Sc3ccccc3C2=O)cc1Br` to `CCC1=NN2C(=N)/C(=C\c3cccn3-c3cc(C)ccc3OC)C(=O)N=C2S1`, the “% Inhibition @ 10 uM” value falls from 6.98% to -3.35%.

Going from `CC(C)CCCC(C)NS(=O)(=O)c1ccc(N)cc1` (centres unmarked) to `CNC(=O)CCCCCNS(=O)(=O)c1ccc(C)cc1`, the “% Inhibition @ 10 uM” value rises from -0.864% to 3.62%.

Compared with `CCN(CCN(C)C)Cc1cccc(OCc2ccccc2)c1`, `CCN(CC)CCN(CC)CCC(C)c1ccccc1` (centres unmarked) is higher in “% Inhibition @ 10 uM” value: -1.64% for the first, 2.1% for the second.

Going from `Nc1ncc(Br)cc1S(=O)(=O)NCCCN1CCN(C2CCCCC2)CC1` to `O=S(=O)(c1ccc(N2CCN(CCO)CC2)nc1)N1CCCCC1`, the “% Inhibition @ 10 uM” value falls from -1.06% to -1.51%.

Compared with `COc1ccc(-c2c(C(C)=O)c(C)nc3sc4c(-n5nc(C)cc5C)nc(C)nc4c23)cc1`, `Cc1cc(C)c(S(=O)(=O)NCCOc2ccccc2)c(C)c1-n1cnnn1` is higher in “% Inhibition @ 10 uM” value: -10% for the first, 0.9% for the second.

First: COC(=O)C1=C(C)NC(=O)C1(NC(=O)c1ccccc1F)C(F)(F)F (centres unmarked)
Second: COC(=O)c1cc(Cl)nc2ccccc12
The “% Inhibition @ 10 uM” value of the first is lower: 0.221% for the first, 3.04% for the second.

Going from `CCOC(=O)c1ccccc1NS(=O)(=O)c1ccc(Br)cc1` to `CCOc1ccccc1C(=O)Nc1cccnc1`, the “% Inhibition @ 10 uM” value rises from -0.828% to 1.86%.

Compared with `COC(=O)c1sccc1S(=O)(=O)N1CCC2(CC1)OCCO2`, `Cc1ccc(-c2c(CN3CCC4(CC3)OCCO4)csc2C)cc1` is lower in “% Inhibition @ 10 uM” value: 4.97% for the first, -7.62% for the second.

Going from `COCCCn1c(=N)c(S(=O)(=O)c2ccc(Cl)cc2)cc2c(=O)n3cccc(C)c3nc21` to `Cc1ccc2nc3c(cc(C#N)c(=O)n3Cc3ccccc3)c(=O)n2c1`, the “% Inhibition @ 10 uM” value falls from 16.1% to -0.551%.

Compared with `CNC(=O)C1CC(=O)N(c2ccc(C)cc2)C1` (centres unmarked), `Cc1ccc(-n2ncc3c(NCC4CCCO4)ncnc32)cc1` (centres unmarked) is higher in “% Inhibition @ 10 uM” value: -4.01% for the first, 1.26% for the second.

Compared with `CC(=O)N(C)c1ccc(NC(=O)c2ccccc2C(=O)O)cc1`, `Cc1c(C(=O)Nc2ccccc2F)cnn1-c1ccccc1` is higher in “% Inhibition @ 10 uM” value: -7.32% for the first, -2.74% for the second.

Going from `CN(C)c1ccc(C2C3=C(O)CC(C)(C)CC3=Nc3ccccc3N2C(=O)C2CC2)cc1` (centres unmarked) to `Cc1cccc(-n2c(C)nc3cc(C(=O)NC4CCCC4)ccc32)c1`, the “% Inhibition @ 10 uM” value falls from 0.76% to -3.78%.

First: O=S(=O)(c1ccc(Cl)s1)N1CCCC(c2ccccc2)C1 (centres unmarked)
Second: c1coc([C@H]2Nc3ccccc3[C@H]3OCC[C@@H]23)c1
The “% Inhibition @ 10 uM” value of the first is lower: -3.49% for the first, 2.84% for the second.

Going from `CCCCNC(=O)c1ccc(OCC)cc1` to `COCCCNC(=O)c1cc2oc3ccccc3c2n1C`, the “% Inhibition @ 10 uM” value falls from 4% to 1.22%.

Compared with `CC(C)(C)c1ccc(OCCNC(=O)C2CCCN2S(=O)(=O)c2ccc(Cl)c(Cl)c2)cc1` (centres unmarked), `CCOc1ccc(N2C(=O)CC(N3CCN(c4ccccc4F)CC3)C2=O)cc1` (centres unmarked) is higher in “% Inhibition @ 10 uM” value: -0.703% for the first, 1.92% for the second.

First: CCCCCCc1cc2cc(-c3csc(N)n3)c(=O)oc2cc1O
Second: C=CCc1cccc2cc(C(=O)NCCc3ccc(OCC)c(OCC)c3)c(=O)oc12
The “% Inhibition @ 10 uM” value of the first is lower: 1.12% for the first, 1.98% for the second.

First: CCCn1c2ccccc2c2cnn(CC(=O)Nc3ccc(Cl)cn3)c(=O)c21
Second: Cc1ccc2nc3c(O)n(CC(=O)N4CCN(c5ncccn5)CC4)ncc-3c2c1
The “% Inhibition @ 10 uM” value of the first is higher: 8.44% for the first, 3.1% for the second.

Compared with `Cc1ccc(CSCC2COC(c3cccs3)=N2)cc1` (centres unmarked), `CCOc1ccc(Cn2c(=O)oc3ccc(C)cc32)cc1OC` is higher in “% Inhibition @ 10 uM” value: -7.73% for the first, -4.41% for the second.

First: CNc1nc(Nc2ccccc2C(=O)c2ccccc2)nc(OC(C(F)(F)F)C(F)(F)F)n1
Second: CN(Cc1ccccc1)c1ncnc2c(-c3ccc(F)cc3)nsc12
The “% Inhibition @ 10 uM” value of the first is lower: -4.01% for the first, -2.71% for the second.

Compared with `CN(C)CCCN(CCCN(C)C)Cc1c(F)cccc1Cl`, `CCN(CC)CCCNCc1cccc(C)c1` is lower in “% Inhibition @ 10 uM” value: 1.62% for the first, -3.12% for the second.

First: Brc1ccc(C2CC(c3ccco3)n3ncnc3N2)cc1 (centres unmarked)
Second: CCOc1cc(C2C=C(c3ccc(F)cc3)Nc3nnnn32)ccc1OC(F)F (centres unmarked)
The “% Inhibition @ 10 uM” value of the first is higher: 0.83% for the first, -5.19% for the second.

Going from `O=C(NCCO)C1c2ccccc2Sc2ccccc21` to `Cc1ccccc1/C=C1/C(=N)N2N=C(C(C)C)SC2=NC1=O`, the “% Inhibition @ 10 uM” value falls from -2.81% to -6.69%.

Compared with `CN1C(=O)/C(=C/c2cc(Br)ccc2O)S/C1=N/c1cccc(C(=O)O)c1`, `O=C(Nc1c(Cl)cccc1Cl)c1ccc2c(c1)OCO2` is lower in “% Inhibition @ 10 uM” value: 2.44% for the first, 0.727% for the second.

First: CC1CCCCC1NC(=O)C1CCN(c2nnc(N3CCCC3=O)s2)CC1 (centres unmarked)
Second: Cc1ccc(F)c(NC(=O)NC2CCCCC2)c1
The “% Inhibition @ 10 uM” value of the first is lower: 0.623% for the first, 6.08% for the second.

First: CCN(CC)c1ccc(NC(=O)NC2CCCCC2)cc1
Second: CC(C)CC(NC(=O)c1ccncc1)C(=O)NCC#N (centres unmarked)
The “% Inhibition @ 10 uM” value of the first is lower: -1.61% for the first, 0.556% for the second.

For `CCc1nc2c(=O)n(C)c(=O)n(C)c2[nH]1`, the “% Inhibition @ 10 uM” value was -2.66%.

`Cc1c(C(=O)N2CCN(C(=O)c3ccccc3)CC2)c(-c2ccccc2)nn1-c1ccccc1` was tested, and the “% Inhibition @ 10 uM” value was -2.87% and -0.884%.
